Experimental data reported in the supplement of paper PMC10126150.
Values marked as one replicate rest on one cluster of the flow cell; about a third of the high ones do not repeat.

test system: ATP; experiment: switch fluorescence ratio, 500 uM ATP over buffer (Cy3 cluster intensity, sum of 5 cycles each) (fold (ratio)); higher = stronger signal-on switching upon ATP binding; sequences stand for … in TCGTCGGCAGCGTCAGATGTGTATAAGAGACAGTTTTTTTTTTTTTTTTTTTTTTTTT…TC; settings: aptamer strand: ATP DNA aptamer (quencher-CACCTGGGGGAGTATTGCGGAGGAAGG + anchor), 100 nM annealed; ATP concentration: 500 uM; one replicate
Outline: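 Per cluster, summed Cy3 intensity from the target cycles was divided by that from the buffer cycles to give the fluorescence ratio, then averaged per switch-domain sequence. Clusters outside 100-1000 RFU were excluded. The Cy3-labelled switching-strand clusters, on a modified Illumina MiSeq flow-cell, were annealed to 100 nM quencher-labelled ATP aptamer and imaged in selection buffer, then after 15 min with 500 uM ATP at 22 °C, for five cycles with NaOH stripping and re-annealing between them.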
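Note: ATP exposure 15 min at 22 °C before imaging.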

Sequence | switch fluorescence ratio
ATCTTACTAG | 1.04
TTGTCTACCG | 1.06
AAGGATTGGT | 0.997
TTCACGAGG | 1.04
GTGTTCCGTA | 1.06
CGGGGGTAAC | 1.04
GTGGCCTTGC | 1.11
TGTTTGGGTC | 0.995
GCGTGAGTTT | 1.09
GGTCGGATTG | 0.973
CTCGAGGATT | 1
AGGTCATTGC | 0.994
CGCAGGGTAA | 1.03
TAGTGTTCAC | 0.96
TATGGGCCAT | 1.26
TAGTCATCGA | 1.03
TCTAGTACAG | 1.02
ATGACCGTC | 1.12
CGGGCCAGTA | 0.983
CATTCCCCTG | 1.04
AGATAGGGTG | 1.03
CGCCTATTCG | 0.98

Sequence | switch fluorescence ratio
CGTGACGTGA | 1.01
CCTATCAAAT | 1.01
TGATCCCAGT | 1.06
ACTTTGTTAC | 1.03
TGTTGGGCCG | 1.49
GCTGAGGGGT | 1.11
TGTACCAGTT | 1.01
ATAAGAGTCC | 0.919
GCCCAAATGT | 1
TACAACCTTT | 1.18
GGAATATCTG | 1.06
TTGCTTACGT | 1.05
ATCCTCGGGG | 1.26
TTTGCCGTTT | 0.992
GGAAATGGTA | 0.987
GATGGGATA | 0.947
GGGAGGGCAG | 0.984
AATTATGAAC | 1.05
AAATCACAGA | 1.05
TTACTAGACC | 1.21
ACCGGGTAAG | 0.979
TCATCACTTA | 1.07

Sequence | switch fluorescence ratio
GGATCGTGTC | 0.945
CTTAACGAAG | 0.998
TCACAGTTGT | 0.981
TCTCATGACA | 1.04
TGAGATTTAA | 1.02
CGTAGCGCCT | 1.03
GTCAAATCTT | 1.03
AATTGATAGT | 1.04
TGACGAAATA | 2.65
CTGTTAAATC | 1.01
CGTCAAATCA | 1.03
TTTCTGAGGC | 1.01
ATAGTTAGTT | 0.977
CAGGTCCAGA | 0.959
CGCTGATACA | 1.62
ACCGGGTCAA | 1.09
ATCAGAAGCC | 1.03
GTTATTTCGT | 0.996
ATGCAGAAGC | 1.03
AACGGCCTTA | 1.02
ATTACTTCGG | 0.964
TCTCGAGGTA | 1.01

Sequence | switch fluorescence ratio
AACGGTAGAC | 1.14
ACGCGTTGAC | 0.987
ATCTTCCCCA | 1.25
AGTGTTAGCG | 1.1
ACAGGAAAT | 0.987
GGTCACCAGC | 0.999
CGCTAGAACC | 1.06
ATGATCCCCC | 1.1
GGGGTGAGAT | 0.97
CACCGACGGG | 1.13
ACTGACTGCT | 1.11
ATTGATAGTT | 0.936
AATTGTCACG | 1.01
CGGACTCAGG | 1.12
GACAGAACAC | 1.11
TTTTGCATG | 0.976
GGGATAACGT | 0.955
ACAACTAATA | 1.03
CGGCTGACTA | 0.984
